Source: paper PMC4336329 (PLoS ONE, 2015)
The whole screen tested about 310,000 compounds, of which about 14,000 (4.5%) showed an effect of 50% or more. The effect is printed as a negative number. Some of the results follow.

Target: human ether-à-go-go-related gene (hERG) potassium channel (human, UniProt Q12809)
Assay: primary screen, population patch clamp on CHO cells stably expressing hERG
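Note: peak tail current of the secondary pulse compared with the same well before compound.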

human ether-à-go-go-related gene (hERG) potassium channel, sequence (Q12809 whole entry, looked up): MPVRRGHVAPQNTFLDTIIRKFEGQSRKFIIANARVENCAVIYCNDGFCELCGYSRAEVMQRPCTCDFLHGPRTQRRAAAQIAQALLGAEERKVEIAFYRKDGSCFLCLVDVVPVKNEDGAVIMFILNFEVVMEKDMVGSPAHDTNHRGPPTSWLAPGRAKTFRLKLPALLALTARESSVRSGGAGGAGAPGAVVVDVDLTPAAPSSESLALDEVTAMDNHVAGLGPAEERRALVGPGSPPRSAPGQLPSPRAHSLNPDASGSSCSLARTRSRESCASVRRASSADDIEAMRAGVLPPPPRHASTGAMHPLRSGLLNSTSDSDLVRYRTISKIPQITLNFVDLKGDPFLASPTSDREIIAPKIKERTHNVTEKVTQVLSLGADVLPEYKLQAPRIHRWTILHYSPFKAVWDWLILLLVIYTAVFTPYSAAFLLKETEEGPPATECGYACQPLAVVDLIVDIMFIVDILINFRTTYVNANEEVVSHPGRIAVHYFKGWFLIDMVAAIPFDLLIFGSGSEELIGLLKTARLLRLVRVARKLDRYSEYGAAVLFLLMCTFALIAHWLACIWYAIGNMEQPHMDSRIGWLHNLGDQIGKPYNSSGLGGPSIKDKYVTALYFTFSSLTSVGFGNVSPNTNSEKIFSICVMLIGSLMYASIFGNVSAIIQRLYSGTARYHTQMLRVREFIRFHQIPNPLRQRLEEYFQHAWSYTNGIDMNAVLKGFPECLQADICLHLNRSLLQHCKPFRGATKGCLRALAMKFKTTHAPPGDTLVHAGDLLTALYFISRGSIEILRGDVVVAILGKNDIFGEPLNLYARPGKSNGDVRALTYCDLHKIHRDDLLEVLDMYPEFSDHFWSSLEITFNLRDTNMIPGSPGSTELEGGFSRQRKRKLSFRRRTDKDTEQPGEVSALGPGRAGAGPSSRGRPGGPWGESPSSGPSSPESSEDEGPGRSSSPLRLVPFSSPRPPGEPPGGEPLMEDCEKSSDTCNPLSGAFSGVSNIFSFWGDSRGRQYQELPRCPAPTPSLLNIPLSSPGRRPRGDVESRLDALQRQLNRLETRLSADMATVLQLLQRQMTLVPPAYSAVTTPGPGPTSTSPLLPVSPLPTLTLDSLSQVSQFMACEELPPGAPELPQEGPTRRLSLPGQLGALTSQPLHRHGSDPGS

Compound | hERG current change (%, negative = inhibition) at 10uM
CCCCNC(=S)N(CCN(C)C)Cc1cc2cc3c(cc2[nH]c1=O)OCCO3 | 7.02%
NNC(=O)CNC(=O)c1cccc(Br)c1 | -1.26%
COc1cc(/C=N/NC(=O)Cc2csc(C)n2)ccc1OCC(C)C | -0.122%
CCc1nc2ccccc2n1CC(O)COCC1CC=CCC1 (stereo not drawn) | -31.9%
O=C(NCc1cccnc1)/C(=C/c1ccc(-c2cccc(C(F)(F)F)c2)o1)NC(=O)c1ccccc1 | -74.1%
O=C(CC(=O)N1CCN(c2ccccn2)CC1)Nc1ccc2nc3n(c(=O)c2c1)CCCCC3 | -17.9%
CCCC(=O)CN1C(=O)C2(OCCO2)c2ccccc21 | 7.06%
CCCn1c(=O)c2ccccc2n2c(SCC(=O)NCc3cccs3)nnc12 | -18.1%
CCn1c2ccccc2c2nnc(NN)nc21 | 10.6%
COc1ccc(-c2cnc(N)nc2-c2ccc(OC)cc2)cc1 | 22.4%
Cc1coc2cc3oc(=O)ccc3cc12 | 9.84%
CN(CC(=O)O)c1ccc(S(=O)(=O)N2CCOCC2)cc1[N+](=O)[O-] | 12.5%
COc1cc(OC)cc(-c2nnc(SCc3cccnc3)o2)c1 | -24.8%
Cc1nn(Cc2ccc(Cl)cc2)c(C)c1NC(=O)c1cc(-c2ccc3c(c2)OCO3)on1 | -3.11%
CC(=O)OC(C(=O)NC1CCCCC1)c1ccc(Cl)c(Cl)c1 (stereo not drawn) | 30.7%
CC1CCN(C(=O)CN2C(=O)NC3(CCCCCC3)C2=O)CC1 | 9.19%
CCC(C)(C)C1CCc2[nH]nc(C(=O)NCc3ccccn3)c2C1 (stereo not drawn) | 2.6%
COc1ccc(C(=O)NC2CC2)cc1OC1CCN(Cc2cc(C)cc(C)c2)CC1 | -70.2%
Cc1cc(C)c(C(=O)CN2C(=O)NC3(CCCCCC3)C2=O)cc1C | 16.8%
C#CCOCCOCCOCCNc1nc(N2CCN(C(=O)CCCCCCCCCCNC(=O)[C@@H](CCSC)n3cc(CCO)nn3)CC2)nc(N2CCN(C(=O)CCCCCCCCCCNC(=O)[C@H](CCCN=C(N)N)n3cc(C[C@@H](C)CC)nn3)CC2)n1 | 16.1%
Cc1ccc(S(=O)(=O)Cc2nnnn2-c2ccccc2)cc1 | 2.98%
O=C(COc1ccccc1)Nc1ccc(N2CCN(C(=O)c3ccco3)CC2)cc1 | -53%
CC(=O)Nc1ccc(/C=C(\C#N)C(=O)NC2CCCCC2)cc1 | 11.2%
Cc1c(C(=O)NC(=S)N(Cc2ccccc2)c2ccccn2)cccc1[N+](=O)[O-] | 4.9%

Compound | hERG current change (%, negative = inhibition) at 10uM
CCOc1ccc(NC(=O)c2ccccc2NS(C)(=O)=O)cc1 | -35%
CCn1c(=O)c2cc(C(=O)N(C)c3ccc(OC)cc3OC)sc2c2ccccc21 | -6.48%
Nc1cc(S(=O)(=O)N2CCCCC2)ccc1Oc1ccc(Cl)cc1 | -8.53%
Cc1ccc(NC(=O)C2CCN(c3nc(C)cc(C)n3)CC2)cc1 | 26.3%
Cc1ccccc1NC(=O)COc1coc(CN2CCN(c3ccccc3)CC2)cc1=O | -21.1%
CC(C)(C)c1nnc(NC(=O)c2cccnc2Cl)s1 | 13.2%
COc1ccc(OCc2nn3c(-c4cccc(OC)c4)nnc3s2)cc1 | -2.35%
Cc1ccc(-c2csc(NC(=O)Cn3[nH]c(=O)c4ccccc4c3=O)n2)cc1 | 8.61%
NC(=O)CC(NC(=O)c1ccccc1)c1ccc(NCCN2CCOCC2)c([N+](=O)[O-])c1 (stereo not drawn) | 11.8%
CC1=NN(c2ccccc2)C(=O)C1/C=C1\NC(=S)NC1=O (stereo not drawn) | 26.5%
COc1ccccc1NC(=O)Cn1nnc2sc3c(c2c1=O)CC(C)(C)OC3 | 7.33%
CCCCNC(=O)CSc1cc(=O)n(C)c2ccccc12 | 4.11%
Cl.Nc1nc(Nc2cccc(F)c2)nc2ccccc12 | -19.3%
COc1cccc2cc(CC(=O)c3ccc(C)c(C)c3)c(=O)oc12 | 4.6%
CCCCC(=O)Nc1ccc(Cl)cn1 | -8.54%
O=C(NC1=NCCS1)c1ccccc1OCc1ccccc1Cl | -4.33%
CC(C)c1onc(C(=O)Nc2cccc(Cl)c2)c1[N+](=O)[O-] | 12.3%
CCCc1cc2c(cc1NC(=O)c1ccccc1Cl)OCO2 | 11.9%
Cc1cccc(-n2cnc3sc(C)c(C)c3c2=O)c1 | -2.72%
COc1ccc(/C=C(\C#N)C(=O)c2c(C)[nH]c3ccccc23)cc1OC | -5.95%
Fc1ccc2c(c1)C(c1ccncc1)=NNC(c1ccc(Cl)cc1)=N2 | -0.894%
Cc1ccc(C)c(Cn2c3ccccc3c3cnn(CC(=O)NCc4ccccn4)c(=O)c32)c1 | 9.09%
CC1(C)NC(C)(C)C(O)(C(N)=O)C1=O (stereo not drawn) | 0.964%
COc1ccc(C(O)(CCc2ccccc2)CCN2CCCCC2)cc1.Cl (stereo not drawn) | -17.5%
